{"source": "patent US20250281631A1", "about": "“ANTIBODY-DRUG CONJUGATES AND PREPARATION METHODS AND USE THEREOF” (SICHUAN KELUN-BIOTECH BIOPHARMACEUTICAL CO., LTD, priority 2022, published 2025)", "key": {"[1]": {"tested_on": "NCI-N87 gastric cancer xenograft model", "assay": "In vivo drug efficacy in NCI-N87 CDX model", "design": "species or system female BALB/c-nu mice", "details": "3 mg/kg", "text": "The following formula was used to calculate the tumor growth inhibition rate TGI (%), which was used to evaluate the tumor inhibitory efficacy:\n[formula] • wherein, • VTend represented a mean value of tumor volume at the end of the experiment in a treatment group • VTstart represented a mean value of tumor volume at the beginning of the administration in a treatment group • VCend represented a mean value of tumor volume at the end of the experiment in the negative control group • VCstart represented a mean value of tumor volume at the beginning of the administration in the negative control group\n6. Detection of In Vivo Drug Efficacy of Anti-Human HER3 Antibody-Drug Conjugates in N87 Model\nNCI-N87 cells were cultured at 37° C. with 5% CO2 in RPMI1640 medium containing 10% fetal bovine serum. The NCI-N87 cells in the exponential growth phase were collected, resuspended in PBS to an appropriate concentration, and inoculated subcutaneously in female BALB/c-nu mice to establish a human gastric cancer model. When the average volume of tumor was about 120 mm^3, the animals are randomly divided into groups according to the tumor size, including: vehicle control group, hIgG1-A-07-A 3 mg/kg group, ADC 22B6-A-07-A-1 3 mg/kg group, ADC 47A3-A-07-A 3 mg/kg group, and ADC 100H7-A-07-A 3 mg/kg group. All animals were administered via injection through tail vein on Day 0, Day 4 and Day 7, and 3 times in total. After administration, the tumor diameter was measured twice a week with a vernier caliper, and the tumor volume was calculated according to the following formula: V=0.5 a×b^2, wherein a and b represented the long and short diameters of tumor, respectively, and the death of animals was observed and recorded every day."}, "[2]": {"details": "37° C., 1 to 168 hours", "experimental": "4. Detection of Plasma Stability of Anti-Human HER3 Antibody-Drug Conjugate\n3.59 μl of 20.9 mg/ml 22B6-A-07-A-1 ADC sample was precisely weighted and transferred into EP tubes, added with 496 μl of human, cynomolgus monkey and mouse blank plasma respectively, and mixed well to obtain human, cynomolgus monkey and mouse plasma samples containing 22B6-A-07-A-1 ADC. The samples were placed in a constant temperature incubator and incubated at 37° C., and 50 μl of each sample was taken at 1, 3, 6, 24, 48, 96 and 168 hours, added with 200 μl of 0.5% formic acid-acetonitrile to precipitate protein, and centrifuged at 13,000 rpm at 4° C. for 10 min, then the supernatant was taken and stored at −80° C. After all samples were collected, the concentrations of the cytotoxic drugs were detected by LC-MS/MS."}, "HCC1569 cells": {"tested_on": "HCC1569 cells", "assay": "Endocytosis effects of anti-human HER3 antibody and ADC (pHrodo, flow cytometry)", "format": "cell-based", "details": "24 hours", "experimental": "9. Detection of Endocytosis Effects of Anti-Human HER3 Antibody Conjugates\nAdherent cells were digested with Trypsin-EDTA (0.25% Shanghai Basal Media Technologies) solution, counted, and adjusted the cell concentration to 1×10^5/ml with complete culture medium, then 100 μl of the cell suspension was added to the 96-well plate (the cell number is 1× 10^4/well), the 96-well plate was incubated in constant temperature CO2 incubator at 37° C. for 24 hours. Then took out the 96-well plate, discarded the medium, and added 50 μl of fresh complete culture medium to each well, the bi-specific antibody and control antibody were diluted with complete culture medium by serial dilution, the final concentrations were 0.55, 1.64, 4.94, 14.81, 44.44, 133.33, 400, 1200 ng/ml, 8 concentrations in total; PHrodo solution (Thermo) was diluted with complete culture medium to 12 μg/ml (the final concentration of PHrodo is 3 μg/ml); the serial diluted antibody candidates and diluted PHrodo solution were 1:1 mixed (30 μl 30 μl), incubated at room temperature in dark for 30 minutes; add 50 μl antibody candidate and PHrodo solution mixture to 96-well bplace, cultured at 37° C., 5% CO2 for 24 hours; took out the 96-well plate, discarded medium, washed once with sterile PBS, then cells were digested with 100 μl/well Trypsin-EDTA (0.25%), neutralized with 100 μl complete culture medium; then cells were separated by piping up and down and detected by flow cytometry. Data processing: the average fluorescence signal values were exported, and then input into GraphPad Prism 6 software to calculate EC50."}, "HEK293T-h HER3 cells": {"tested_on": "HEK293T-h HER3 cells", "assay": "In vitro cytotoxicity of anti-human HER3 ADCs (CCK8, 6 days)", "format": "cell-based", "details": "result in words; Table 33, FIGS. 2A-2C", "text": "2. In Vitro Cytotoxicity of Anti-Human HER3 Antibody-Drug Conjugates"}, "[3]": {"tested_on": "HEK293T negative cells coexisting with HEK293T-HER3 positive cells", "assay": "Bystander effect test, labeled HEK293T co-cultured with HEK293T-h HER3", "format": "cell-based", "details": "negative cells HEK293T and positive cells HEK293T-HER3 coexisted; 4 days", "experimental": "3. Bystander Effect of Anti-Human HER3 Antibody-Drug Conjugates\nHEK293T and HEK293T-h HER3 cells were digested with 0.25% Trypsin-EDTA (manufacturer: Gibco), counted, and an appropriate amount of the cells were taken, washed twice with 1×PBS, the cell density was adjusted to 1×10^6 cells/ml, and then Cell Trace Violet was added to reach a final concentration of 5 μM for labeling, mixed well and incubated in an incubator for 20 min, then the cells were washed with growth medium and counted, plated on 24-well plates (500 μl/well) according to the following ratios: HEK293T-labeled: HEK293T=4000:12000 cells/well, HEK293T-labeled: HEK293T-h HER3=4000:12000 cells/well, HEK293T-h HER3-labeled: HEK293T-h HER3=4000:12000 cells/well, and cultured overnight at 37° C., 5% CO2;\nOn the next day, ADC was diluted with growth medium to reach concentrations of 20 nM, 4 nM, and 0.8 nM, then 500 μl of the diluted ADC was taken and added to the corresponding 24-well plates containing cells, and the plates were placed and cultured in an incubator at 37° C., 5% CO2 for 4 days;\nHEK293T and HEK293T-h HER3 cells were digested with 0.25% Trypsin-EDTA, added to a growth medium containing PI with a final concentration of 3 μM, mixed well, incubated at room temperature for 15 min, and then detected by flow cytometry (Thermo, model: Attune NxT)."}, "MDA-MB-453 cells": {"tested_on": "MDA-MB-453 cells", "assay": "In vitro cytotoxicity of anti-human HER3 ADCs (second test, Table 39)", "format": "cell-based", "text": "10. In Vitro Cytotoxicity of Anti-Human HER3 Antibody-Drug Conjugates"}, "[4]": {"details": "tail vein injection Day 0, 4, 7, Day 32"}}, "note": "Like-named read-outs stand apart in the source and are kept apart here.", "data": [{"molecule": "22B6-A-07-A-1: ADC of antibody 22B6D2-hIgG1 conjugated to drug-linker A-07-A, DAR 7.99 (conjugate) heavy: EVHLVESGGGVVQPGRSLRLSCATSGFTFRSYGMHWVRQAPGKGLEWVAVIWYDGSNKYYADSVKGRFTISRDISKNTLYLQMNSLTAEDTAVYYCARYYYDSNGYYDAFDIWGQGTMVTVSSASTKGPSVFPLAPSSKSTSGGTAALGCLVKDYFPEPVTVSWNSGALTSGVHTFPAVLQSSGLYSLSSVVTVPSSSLGTQTYICNVNHKPSNTKVDKRV[in this place human IgG1 Fc] light: DIQLTQSPSFLSASVGDRVTITCRASQGISNYLAWYQQKPGKAPKLLIFAASTLQSGVPSRFSGSGSGAEFTLTISSLEPEDFATYYCQQLNSYPITFGQGTRLEIKRTVAAPSVFIFPPSDEQLKSGTASVVCLLNNFYPREAKVQWKVDNALQSGNSQESVTEQDSKDSTYSLSSTLTLSKADYEKHKVYACEVTHQGLSSPVTKSFNRGEC", "values": [{"measurement": "T/C", "setting": "[1]; [4]", "result": 43.61, "unit": "%"}, {"measurement": "TGI", "setting": "[1]; [4]", "result": 66.59, "unit": "%"}, {"measurement": "Tumor volume (x ± SEM)", "setting": "[1]; [4]", "result": "342.37 ± 37.22", "unit": "mm^3"}, {"measurement": "inhibitor effect on the tumor growth", "setting": "[1]; result in words", "result": "significant inhibitor effect on the tumor growth"}, {"measurement": "growth inhibition rate (TGI)", "setting": "[1]; tail vein, Day 0, Day 4 and Day 7, Day 32", "result": 66.59, "unit": "%"}, {"measurement": "shedding of the cytotoxic drugs", "setting": "[2]; cynomolgus monkey plasma", "result": "≤ 5", "unit": "%"}, {"measurement": "shedding of the cytotoxic drugs", "setting": "[2]; human plasma", "result": "≤ 5", "unit": "%"}, {"measurement": "shedding of the cytotoxic drugs", "setting": "[2]; mouse plasma", "result": "≤ 5", "unit": "%"}, {"measurement": "EC50 endocytosis effects", "setting": "HCC1569 cells", "result": 0.03691, "unit": "µg/mL"}, {"measurement": "target-specific killing effect", "setting": "HEK293T-h HER3 cells", "result": "target-specific killing effect"}, {"measurement": "bystander killing of negative cells", "setting": "[3]", "result": "significant killing effect on the negative cells"}, {"measurement": "IC50", "setting": "MDA-MB-453 cells; MDA-MB-453 cells, 6 days, CCK8, Table 39", "result": 4, "unit": "nM"}, {"measurement": "killing effects in MDA-MB-453 cells", "setting": "MDA-MB-453 cells; result in words", "result": "significant killing effects"}]}]}
